In PMC4336329 (PLoS ONE, 2015):
Among all 310,000 compounds or so, about 14,000 (4.5%) showed an effect of 50% or more. The effect is printed as a negative number. The list shows a part of the results.

target: human ether-à-go-go-related gene (hERG) potassium channel (human, UniProt Q12809); experiment: primary screen, population patch clamp on CHO cells stably expressing hERG
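Also: peak tail current of the secondary pulse compared with the same well before compound.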

Sequence of human ether-à-go-go-related gene (hERG) potassium channel (Q12809 whole entry, looked up): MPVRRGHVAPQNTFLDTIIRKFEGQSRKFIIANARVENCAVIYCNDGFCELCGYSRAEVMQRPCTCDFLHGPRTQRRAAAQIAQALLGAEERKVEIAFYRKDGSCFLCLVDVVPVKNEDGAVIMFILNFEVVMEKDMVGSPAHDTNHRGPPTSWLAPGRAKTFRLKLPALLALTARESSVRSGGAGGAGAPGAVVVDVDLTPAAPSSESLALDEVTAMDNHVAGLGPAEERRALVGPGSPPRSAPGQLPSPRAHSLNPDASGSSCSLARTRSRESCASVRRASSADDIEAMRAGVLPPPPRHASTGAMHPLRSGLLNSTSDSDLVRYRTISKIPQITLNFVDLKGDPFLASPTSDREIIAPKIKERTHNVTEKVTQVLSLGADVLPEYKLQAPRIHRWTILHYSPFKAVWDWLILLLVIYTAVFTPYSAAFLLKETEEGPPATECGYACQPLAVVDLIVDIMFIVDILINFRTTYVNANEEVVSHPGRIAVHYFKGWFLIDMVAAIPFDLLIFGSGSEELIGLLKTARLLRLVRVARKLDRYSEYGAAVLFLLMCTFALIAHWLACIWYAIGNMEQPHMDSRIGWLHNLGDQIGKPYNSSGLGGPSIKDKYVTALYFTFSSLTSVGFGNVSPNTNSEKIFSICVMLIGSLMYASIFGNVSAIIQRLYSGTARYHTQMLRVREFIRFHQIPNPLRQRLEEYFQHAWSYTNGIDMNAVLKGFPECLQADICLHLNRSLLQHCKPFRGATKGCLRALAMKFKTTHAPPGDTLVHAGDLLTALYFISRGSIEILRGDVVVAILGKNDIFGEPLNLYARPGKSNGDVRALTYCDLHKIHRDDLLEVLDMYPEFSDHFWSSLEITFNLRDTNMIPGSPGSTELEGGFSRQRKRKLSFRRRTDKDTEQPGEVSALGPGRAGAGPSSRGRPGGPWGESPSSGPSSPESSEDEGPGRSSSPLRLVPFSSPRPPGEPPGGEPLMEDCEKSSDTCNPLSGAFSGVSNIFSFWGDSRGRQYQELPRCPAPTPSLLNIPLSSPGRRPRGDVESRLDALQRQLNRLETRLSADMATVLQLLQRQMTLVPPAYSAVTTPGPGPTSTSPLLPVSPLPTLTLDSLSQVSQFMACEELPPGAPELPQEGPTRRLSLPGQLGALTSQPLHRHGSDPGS

SMILES | hERG current change (%, negative = inhibition) at 10uM
CC(C)c1ccc(/C=N/Nc2ccc(C(=O)O)cc2)cc1 | 18%
Cc1ccc(SCCc2ccc(C)nc2)cc1 | -9.97%
CCCCCCCCNC(=O)CCNC(=O)c1ccc(C(C)(C)C)cc1 | 8%
COc1ccc(CCNC(=O)Cn2nnc(C(=O)Nc3ccc(Br)cc3)c2N)cc1OC | -14.1%
CCOC(=O)C1CCN(CC(=O)c2c(C)[nH]c3ccccc23)CC1 | -39.7%
Oc1cccc(C2c3[nH]c4ccccc4c3CCN2Cc2ccc3c(c2)CCO3)c1 (centres unmarked) | 9.6%
NC(=O)c1nsc(C(=O)N(Cc2ccco2)C(C(=O)NCc2ccc(F)cc2)c2ccc(O)cc2)c1N (centres unmarked) | -43.8%
CCOc1ccccc1Nc1ncnc2ccc(Br)cc12 | 19.9%
Cc1ccc(NC(=O)CN(C)C(=O)c2ccc(Cl)nc2)cc1 | -21.3%
CCOC(=O)C1CCN(C(=S)NC2CCCC2)CC1 | 0.997%
COc1ccc(NC(=O)c2ccc(C#N)cc2)cc1NS(=O)(=O)c1ccc(F)cc1 | 5.85%
O=C(CP(=O)(O)CC(=O)c1ccccc1)c1ccccc1 | 9.81%
O=C(c1ccc(Cl)nc1)N1CCN(C/C=C/c2ccccc2)CC1 | -44.1%
O=C(Nc1cccc(Cl)c1)C1CCCN(c2cnccn2)C1 (centres unmarked) | -10.8%
O=C(CCc1nnc(C2CCCCC2)o1)N1CCN(c2ccccc2F)CC1 | -4.06%
O=C1COCC(=O)N1CCc1c[nH]c2ccccc12 | 17.1%
CN(Cc1ccco1)C(=O)C1CCCN(c2ncnc3c2nc2n3CCCCC2)C1 (centres unmarked) | 5.57%
C/C(CC(=O)Nc1ccccn1)=N\NC(=O)C(=O)Nc1cccc(Cl)c1C | 8.23%
CCOc1ccc(S(=O)(=O)Nc2cccc(C(=O)N3CCN(c4ccc(OC)cc4)CC3)c2)cc1 | -15.8%
COc1cc(OC)cc(C(=O)OCC(=O)N(C)c2ccccc2)c1 | 13.4%
CCN(Cc1ccncc1)C(=O)CCc1nnc(CCc2ccc(OC)cc2)o1 | 0.939%
Cc1ccc(NC(=O)c2cccs2)cc1S(=O)(=O)N(C)C | -4.53%
CCN(CC)S(=O)(=O)c1ccc(C(=O)NCCN2C(=O)S/C(=C\c3cccnc3)C2=O)cc1 | 8.89%

SMILES | hERG current change (%, negative = inhibition) at 10uM
N#Cc1c(NCc2ccccc2)ccnc1NCc1cccnc1 | -18.7%
CN(c1ccc(C(=O)NCc2ccccn2)cc1)S(C)(=O)=O | -4.43%
COc1cc(C(=O)Nc2ccc3c(c2)N(C(=O)CCN(C)C)c2ccccc2CC3)cc(OC)c1OC.Cl | -12.2%
O=C(Nc1ccc(OC(F)(F)F)cc1)c1ccc(S(=O)(=O)N2CCOCC2)o1 | -53.7%
Cc1ccccc1/C=C1\SC(=S)N(/N=C/c2cc([N+](=O)[O-])ccc2O)C1=O | 8.13%
O=C(O)CC[C@@H](C(=O)O)N1C(=O)c2ccccc2C1=O | -6.45%
FC(F)(F)c1cccc(-c2noc(CN3CCOCC3)n2)c1 | 6.74%
CC1CCCN(S(=O)(=O)c2ccc3oc(=O)ccc3c2)C1 (centres unmarked) | -19.4%
O=C(O)c1cc(NCc2c(F)cccc2Cl)ccc1N1CCOCC1 | -21.1%
CCc1cc(C(=O)N2CCN(S(=O)(=O)c3ccccc3F)CC2)sc1C | -3.67%
CC(=O)c1cn(CCC(C)C)c(=O)[nH]c1=O | -0.467%
O=C1Cc2cccc3cccc1c23 | 13.2%
COc1ccc2c(c1)OC(O)(C(F)(F)F)CC2=O (centres unmarked) | -5.68%
COc1ccc(C(=O)CSc2n[nH]c(C)n2)cc1[N+](=O)[O-] | 2.65%
CCN(CC)CCNC(=O)c1ccc(NC(=O)COc2ccc3c(c2)CCC3)cc1 | -48.5%
COCCSc1ccccc1C(=O)NCCc1ccccc1 | -3.39%
CCCCCCCN(C(=O)CCl)c1cccc(C)c1 | -6.98%
COc1ccc(C(CC(=O)N2CCCC2)C(C)C)cc1 (centres unmarked) | -2.25%
COc1cc2[nH]c(=S)n(Cc3ccco3)c(=O)c2cc1OC | -1.76%
S=c1nc[nH]c2c1cnn2-c1ccccc1 | 19.4%
COc1ccc(CNC(=S)NCc2ccc(OC(C)C)cc2)cc1 | -3.86%
Cc1sc2ncnc(NCC(c3ccccc3)N(C)C)c2c1C (centres unmarked) | -40.1%
Cc1ccc(N2CC(O)(c3cccs3)[N+]3=C2CCCC3)cc1.[Br-] (centres unmarked) | -32.3%

SMILES | hERG current change (%, negative = inhibition) at 10uM
C[C@H](NC(=O)C(c1ccccc1)c1ccccc1)c1ccccc1 | 6.04%
Cc1ccc(/C=N/NC(=O)c2ccc3ccccc3c2)s1 | 11.3%
O=C(c1ccco1)n1c(=S)nc2ccccn21 | 16.7%
Nc1nc(NCc2ccccc2)nc(NCCO)c1[N+](=O)[O-] | -3.94%
Cl.N=C(N)N1CCc2ccccc21 | 5.99%
Cc1ccsc1-c1nc(C(N)=O)c2[nH]c(=O)n(-c3ccc(Cl)cc3)c2n1 | 1.51%
CCN(CC)C1CCS(=O)(=O)C1.Cl (centres unmarked) | 16.1%
COCCNC(=O)Cn1nc(C(F)(F)F)c(Cl)c1C | -3.48%
CN(CC(=O)Nc1ccc(Cl)cc1)C(=O)c1cccc(S(=O)(=O)NCc2ccccc2)c1 | 16.3%
COCCNS(=O)(=O)c1ccc2c3c(cccc13)C(=O)N2C | 20.2%
COc1ccccc1N1CCN(C(=O)CN2C(=O)c3cccc4cccc(c34)C2=O)CC1 | 16.9%
CC(C)=C1C2CCC1C1C(=O)N(c3nc(-c4ccccc4)c(C)s3)C(=O)C21 (centres unmarked) | -2.93%
CCn1ccnc1CN(C)Cc1cn(-c2ccccc2)nc1-c1ccc(OC)cc1F | -44.9%
CCCOc1ccc(-c2csc(NC(=O)CN3C(=O)CCC3=O)n2)cc1 | 7.43%
C=CC(=O)NCCCc1cc(C(C)(C)C)c(O)c(C(C)(C)C)c1 | -1.74%
CN(C)C(=O)c1cc(F)ccc1Sc1cc(Cl)ccc1Cl | -2.59%
O=C(c1ccc(CNS(=O)(=O)c2ccc(Br)cc2)cc1)N1CCCC1 | -4.71%
O=C1Nc2cc(C(=O)N3CCN(Cc4ccccc4)CC3)ccc2SC1N1CCOCC1 (centres unmarked) | -3.14%
N=C1S/C(=C\c2ccco2)C(=O)N1c1ccc2c(c1)OCO2 | 14.7%
c1ccc2nc(SCc3cn4ccccc4n3)cnc2c1 | -17%
CN(C)S(=O)(=O)Oc1cccc(C(=O)Nc2ccc(Cl)cc2)c1 | -25.9%
O=C(NN1C(=O)c2ccccc2NC1c1ccc([N+](=O)[O-])o1)c1ccc(Br)cc1 (centres unmarked) | -72.7%
CC1=NN(c2ccc(C)cc2)C(=O)/C1=C\c1ccc(Br)s1 | 3.24%

SMILES | hERG current change (%, negative = inhibition) at 10uM
Cc1cccn2c(CNCCCn3ncc4ccccc43)c(C(=O)N3CCCCC3)nc12 | -18.4%
COc1ccc(N2C(=O)CSC2c2ccc([N+](=O)[O-])cc2)cc1 (centres unmarked) | -37.3%
NC(=O)C1CCN(CC(=O)Nc2ccc(S(=O)(=O)N3CCOCC3)cc2)CC1 | 19%
Cc1cc(N2CCC(C)CC2)nc(NCc2ccccc2)n1 | -43.3%
CCCn1c(=O)n(C)c(=O)c2c(SCC(=O)NCC(c3ccccc3)N(C)C)nc(CC(C)C)nc21 (centres unmarked) | -66.1%
C/C(=N/O)c1ccc(N2C(=O)C3C4C=CC(C3C2=O)C2C3C(=O)N(c5ccc(/C(C)=N/O)cc5)C(=O)C3C42)cc1 (centres unmarked) | -9.19%
Cc1cccc(Oc2nc(-c3ccccc3)cc(C)c2S(C)(=O)=O)c1C | -0.844%
Cc1ccc(C2(C(F)(F)F)N=C3Sc4cc(C)cc(C)c4N3C(=O)N2)cc1 (centres unmarked) | -4.05%
NNC(=S)NCc1ccc2c(c1)OCO2 | 10.9%
CC(N1CCOC1=O)S(=O)(=O)c1ccccc1 (centres unmarked) | 1.31%
Cc1cccc(NC(=O)CCC(=O)N/N=C/c2ccc(O)cc2O)c1 | -0.696%
CCn1cc(C(=O)N2CCN(c3ccc([N+](=O)[O-])cc3)CC2)c(=O)c2ccc(C)nc21 | -70.9%
O=C(NCCS(=O)(=O)NC1CCCCC1)c1ccc2c(c1)OCO2 | 6.14%
CCCCP(=O)(CCCC)c1ccccc1C(=O)O | 4.39%
Cc1c(-c2cccc(Cl)c2)nc2ccccc2c1C(=O)OCC(=O)N(C)C1CCS(=O)(=O)C1 (centres unmarked) | -34.4%
O=C(CSc1nccc(=O)[nH]1)NCc1ccco1 | 15.7%
COc1ccc(CNc2n[nH]c(NCc3ccc(OC)c(OC)c3)n2)cc1OC | 1.3%
O=C(O)c1ccccc1S(=O)(=O)CC(=O)N1CCCCC1 | 15.4%
C=CCNC(=O)c1sc(=S)n(-c2ccc(C(=O)OCC)cc2)c1N | -4.18%
COc1ccc(Cn2c(O)c(C=Nc3ccccc3C(=O)O)c3ccccc3c2=O)cc1 | 11.3%
